Values joined by “and” are separate entries in the source; they are usually repeats but may differ in a detail not shown here. Identical values can stand only once. The campaign covered roughly 420,000 compounds. About 64,000 (15%) were called active. Inconclusive means that the source gave no clear call. Such entries were picked first, then a sample of the others. Calls come from the whole dose curve; as a rule, active = well fitted inhibition curve with a large enough effect; inconclusive = small, poorly fitted or top-dose-only effect; inactive = flat fitted curve, though single readings scatter. Potencies of inconclusive entries are left out as doubtful fits.
Assay: qHTS for Inhibitors of human tyrosyl-DNA phosphodiesterase 1 (TDP1): qHTS in cells in absence of CPT; note: nearly all actives have a fitted effect of over 55% in size
Details: DT40 Tdp1-/- hTDP1 cells, no CPT, ATP luminescence, 48 h; activity change, negative = growth inhibition: at 46.2 µM (top of the series)
Outline: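 Compound effects on proliferation are scored in DT40 Tdp1-/-;hTDP1 cells in the absence of CPT. ATP levels (CellTiter-Glo luminescence) are recorded after a ≥48 hr, 37 °C incubation.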
% is set by controls: 0 for no effect and ±100 for the full control effect; potency is the fitted concentration of half-maximal effect; tags give direction and shape of the fitted curve.

Row | SMILES | activity change, negative = growth inhibition | Potency
1 | CN1CCN(NC(=O)c2ccc(COc3ccccc3Br)o2)CC1 | inconclusive: -30.6% [inhibitor] | –
2 | CCCCC(=O)Nc1ccc(NC(=S)NC(=O)CCCCl)cc1OC | – | inactive
3 | Cc1nc2c(=O)n(C)c(=O)n(C)c2nc1Cl | – | active: 1.16 µM
4 | COC(C(=O)Nc1ccc(S(=O)(=O)Nc2ccc(F)cc2)cc1)c1ccccc1 (centres undefined) | – | inconclusive [inhibitor, single point]
5 | COCCn1cc(C(=O)NCCCN2CCC(C)CC2)c2c3ccccc3n(C)c2c1=O | inconclusive: -42.4% [inhibitor] | –
6 | O=C(C1CC=CCC1)N1CCC(CO)(Cc2ccc(Cl)cc2)CC1 (centres undefined) | – | inconclusive [inhibitor, single point]
7 | COc1nc(-c2ccccc2)ccc1-c1noc(-c2ccccc2)n1 | – | inactive
8 | C=CCn1c(SCC(=O)Nc2ccc3c(c2)OCCO3)nc2cc(C(=O)O)ccc2c1=O | – | inactive
9 | CCOC(=O)c1[nH]c(C)c(CCC(=O)N2CCN(c3ccc(OC)cc3)CC2)c1C | – | inconclusive [inhibitor, single point]
10 | CC(=O)NCC1CCCN(Cc2cn(-c3ccccc3)nc2-c2ccc3c(c2)OCO3)C1 (centres undefined) | – | inconclusive [inhibitor, single point]
11 | COc1ccc(C(C)=O)cc1CSc1nnc(Nc2ccccc2)s1 | – | active: 16.4 µM
12 | CCOC(=O)C1CCN(C(=O)C2CCN(S(=O)(=O)c3c(C)noc3/C=C/c3ccc(C)cc3)CC2)CC1 | – | active: 5.17 µM
13 | CCSc1nc(-c2ccccc2)nc2c1Cc1c(CO)cnc(C)c1O2 | – | inactive
14 | COc1ccc(-n2cc(-c3ccccc3)[nH]c2=S)c(OC)c1 | – | active: 5.8 µM
15 | CCCCN(C)S(=O)(=O)c1ccc(C(=O)Nc2sc3c(c2C(=O)OCC)CCN(C(C)C)C3)cc1 | – | active: 5.8 µM
16 | Cc1ccc(C(C)C)c(OCC(=O)Nc2ccc3c(c2)nc(CCNC(=O)c2ccco2)n3C)c1 | – | active: 10.3 µM
17 | Cn1c(SCC(=O)NC2CCCCC2)nc2c(c1=O)SCC2 | – | inconclusive [inhibitor, single point]
18 | O=[N+]([O-])c1ccc(S(=O)(=O)N2CCN(C3CCN(Cc4ccccc4)CC3)CC2)cc1 | – | inconclusive [inhibitor, single point]
19 | COc1ccc(OC)c(NS(=O)(=O)c2c(C)nc3sccn3c2=O)c1 | – | inconclusive [inhibitor, single point]
20 | O=S(=O)(CC12C3C4C5C1C2C(Br)(C43)C51OCCO1)c1ccccc1 (centres undefined) | – | inactive
21 | COc1ccc(/C=C/C(=O)Nc2ccc(S(=O)(=O)Nc3cc(C)nc(C)n3)cc2)cc1OC | – | inactive
22 | O=C(NCCCN1CCOCC1)C1CCN(S(=O)(=O)c2cccc(Cl)c2Cl)CC1 | – | inactive
23 | COCCNC(=S)N/N=C(\C)CCc1ccc2c(c1)OCO2 | – | inactive
24 | COc1ccc(NC(=O)c2cccc3c(=O)c4c([nH]c23)CCCC4)cc1 | – | inconclusive [inhibitor, single point]
25 | COC(=O)C1CCN(C(=O)c2cc(S(=O)(=O)N3CCCCC3)ccc2Cl)CC1 | – | inconclusive [inhibitor, single point]

Row | SMILES | activity change, negative = growth inhibition | Potency
26 | CCn1c(SCC(=O)NNC(=O)c2ccc(OC)cc2)nnc1C(C)C | – | active: 20.6 µM
27 | CSc1ncccc1C(=O)OCc1nc2ccsc2c(=O)[nH]1 | – | inactive
28 | C[C@H](NC(=O)c1nc[nH]c1C(=O)N1CCc2ccccc2C1)c1ccccc1 | – | inconclusive [inhibitor, single point]
29 | C[C@@H]1CN([C@@H](C)CO)S(=O)(=O)c2ccc(-c3ccccc3)cc2O[C@@H]1CN(C)Cc1ccccc1C(=O)O | – | inconclusive [inhibitor, single point]
30 | CNC(=O)c1ccc(NC(=O)c2cccc(C(F)(F)F)c2)cc1 | – | inactive
31 | COc1ccc(S(=O)(=O)c2cn(C)c3cc(N4CCCCCC4)c(F)cc3c2=O)cc1 | – | active: 14.6 µM
32 | COc1ccc(-c2noc(-c3nnn(-c4ccc(C)cc4C)c3C)n2)cc1 | – | inactive
33 | CCOC(=O)C=Cc1ccc(C(=O)OCC)[nH]1 | – | active: 8.2 µM
34 | COc1ccc(NC(=O)CSC2=Nc3ccccc3C3=NC(CCC(=O)NC4CCCCC4)C(=O)N23)cc1Cl (centres undefined) | – | active: 23.1 µM
35 | CCN(CC)C(NC(=O)c1ccccc1)C(=O)c1ccccc1 (centres undefined) | – | inconclusive [inhibitor, single point]
36 | Cc1ccc(-n2nc(CO)c(C(=O)NCc3cccnc3)n2)cc1C | – | inconclusive [inhibitor, partial curve]
37 | O=C(C(Cc1ccc(Cl)cc1)NS(=O)(=O)c1ccccc1)N1CC[C@@]2(O)CCCC[C@H]2C1 (some centres undefined) | – | inconclusive [inhibitor, partial curve]
38 | COc1ccc(-n2c(C)nc3c(cnn3-c3ccc(C)cc3)c2=O)cc1 | – | inconclusive [inhibitor, partial curve]
39 | CCOc1ccccc1CNS(=O)(=O)c1ccc(-c2cnc(C3CC3)o2)cc1 | – | active: 411 nM and active: 651 nM
40 | O=C(OCCN1CCCCC1)c1cccc(Cl)c1 | – | inactive
41 | CCOC(=O)c1cc(NC(=O)c2ccccc2)c(=O)n2c1oc1ccc(Cl)cc12 | – | inconclusive [inhibitor, partial curve]
42 | CSc1ccc(C2C(C#N)=C(N)Oc3cc4c(cc32)OCO4)cc1 (centres undefined) | – | inconclusive [inhibitor, single point]
43 | Cc1ccc(NC(=O)CSc2nncn2C)c(C)c1 | – | inactive
44 | Cc1cc[n+](CC(=O)c2ccc(F)cc2)c2ccccc12 | – | inconclusive [inhibitor, single point]
45 | O=C(OCc1nc(-c2ccccc2Cl)no1)c1ccco1 | – | inactive
46 | O=C(c1cccc([N+](=O)[O-])c1)N1CCN(S(=O)(=O)/C=C/c2ccccc2)CC1 | – | inactive
47 | COc1cc(NC(=O)CN2C(=O)COc3ccc(S(=O)(=O)N4CCOCC4)cc32)cc(OC)c1 | – | inactive
48 | O=C1CCC(C(=O)Nc2cccc(Oc3ccccc3)c2)=NN1 | – | inactive
49 | CN(C)C(CNC(=O)c1cccc(S(=O)(=O)N2CCc3ccccc3C2)c1)c1ccccc1 (centres undefined) | – | inconclusive [inhibitor, single point]
50 | O=C(CSc1ncccn1)NC(=O)Cc1ccccc1 | – | inactive

Row | SMILES | activity change, negative = growth inhibition | Potency
51 | CSc1nc(NCc2ccccc2)c2c3c(sc2n1)CN(C)CC3 | – | active: 23.1 µM
52 | Cc1ccc(-c2noc(C3CCCN(C(=O)c4ccc(C(C)(C)C)cc4)C3)n2)o1 (centres undefined) | – | active: 18.4 µM
53 | O=C(Nc1cc(F)ccc1F)C1CCN(C(=O)c2cnn(-c3ccccc3)c2-n2cccc2)CC1 | – | active: 25.9 µM
54 | COc1cc([N+](=O)[O-])ccc1NC(=O)CSc1nnc(C)c(C)n1 | – | inconclusive [inhibitor, single point]
55 | O=C(COC(=O)c1cc([N+](=O)[O-])ccc1N1CCOCC1)c1ccc(F)cc1 | – | inconclusive [inhibitor, single point]
56 | COc1ccc(S(=O)(=O)N2CCN(C(=O)c3ccco3)CC2)cc1C(C)(C)C | – | inconclusive [inhibitor, single point]
57 | Cc1cc(Cl)ccc1OCc1nnc(-c2ccccc2C)o1 | – | inactive
58 | CC(C)N(C1=N/C(=C\c2ccco2)C(=O)N1c1ccccc1)C(C)C | – | inconclusive [inhibitor, single point]
59 | O=C(COc1ccccc1Br)Nc1ccc(S(=O)(=O)N2CCCC2)cc1 | – | inconclusive [inhibitor, single point]
60 | COc1ccc(Cl)c2sc(NC(=O)c3ccc(S(=O)(=O)N4CCCC4)cc3)nc12 | – | inconclusive [inhibitor, partial curve]
61 | CSc1ncccc1C(=O)N1CCCC(CCC(=O)NCc2ccc(F)c(F)c2)C1 (centres undefined) | – | inconclusive [inhibitor, single point]
62 | CCN(CC)S(=O)(=O)c1ccc(-c2nnc(SCC(=O)N3c4ccccc4CC3C)o2)cc1 (centres undefined) | – | active: 20.6 µM
63 | CCCCCCN1C[C@H](n2cc(COC(=O)c3ccccc3)nn2)[C@@H](O)C[C@@H]1c1ccccc1 | – | active: 23.1 µM
64 | O=C(C1CC(=O)N(C2CCCC2)C1)N1CCN(c2ccccc2F)CC1 (centres undefined) | – | inactive
65 | COC(=O)c1ccc(NC(=O)CSc2nccn2CCc2ccccc2)cc1 | – | active: 18.4 µM
66 | O=c1c2ccccc2nc(-c2ccccc2)n1Cc1ccccc1 | – | active: 25.9 µM
67 | O=C(CCCn1c(=O)c2ccccc2n(Cc2ccccc2)c1=O)NCc1ccco1 | – | active: 14.6 µM
68 | C=CCNC(=O)CN1CCN(Cc2ccc3c(c2)OCO3)CC1 | – | inactive
69 | C[C@H](CO)N1C[C@H](C)[C@@H](CN(C)C(=O)Nc2ccc3c(c2)OCO3)Oc2ccc(NC(=O)CCN3CCOCC3)cc2C1=O | – | inactive
70 | Cc1ccc(C(=O)NC(O)C(Cl)Cl)cc1 (centres undefined) | – | inconclusive [inhibitor, single point]
71 | CC(=O)N1CCN(c2ccc(NC(=O)c3ccc(Cl)cc3)cc2)CC1 | – | inactive
72 | Cn1c(=O)c2cc(NC(=O)Cc3ccccc3F)ccc2n1Cc1ccc(Cl)cc1 | – | inconclusive [inhibitor, single point]
73 | O=C(C1=C[C@@H](c2csc3ccccc23)C[C@@H](OCc2ccc(CO)cc2)O1)N1CCN(Cc2ccc3c(c2)OCO3)CC1 | – | inconclusive [inhibitor, single point]
74 | COc1ccc(CN2CCNC(=O)C2CC(=O)NC2CCCCCCC2)cc1OC (centres undefined) | – | inconclusive [inhibitor, single point]

Source: PubChem BioAssay AID686978 (National Center for Advancing Translational Sciences (NCATS), 2013)
